The whole screen tested about 310,000 compounds, of which about 14,000 (4.5%) showed an effect of 50% or more. The effect is printed as a negative number. The list shows a part of the results.
These compounds were tested against human ether-à-go-go-related gene (hERG) potassium channel (human, UniProt Q12809) (assay: primary screen, population patch clamp on CHO cells stably expressing hERG).
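Further: peak tail current of the secondary pulse compared with the same well before compound.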

Chain of human ether-à-go-go-related gene (hERG) potassium channel (Q12809 whole entry, looked up): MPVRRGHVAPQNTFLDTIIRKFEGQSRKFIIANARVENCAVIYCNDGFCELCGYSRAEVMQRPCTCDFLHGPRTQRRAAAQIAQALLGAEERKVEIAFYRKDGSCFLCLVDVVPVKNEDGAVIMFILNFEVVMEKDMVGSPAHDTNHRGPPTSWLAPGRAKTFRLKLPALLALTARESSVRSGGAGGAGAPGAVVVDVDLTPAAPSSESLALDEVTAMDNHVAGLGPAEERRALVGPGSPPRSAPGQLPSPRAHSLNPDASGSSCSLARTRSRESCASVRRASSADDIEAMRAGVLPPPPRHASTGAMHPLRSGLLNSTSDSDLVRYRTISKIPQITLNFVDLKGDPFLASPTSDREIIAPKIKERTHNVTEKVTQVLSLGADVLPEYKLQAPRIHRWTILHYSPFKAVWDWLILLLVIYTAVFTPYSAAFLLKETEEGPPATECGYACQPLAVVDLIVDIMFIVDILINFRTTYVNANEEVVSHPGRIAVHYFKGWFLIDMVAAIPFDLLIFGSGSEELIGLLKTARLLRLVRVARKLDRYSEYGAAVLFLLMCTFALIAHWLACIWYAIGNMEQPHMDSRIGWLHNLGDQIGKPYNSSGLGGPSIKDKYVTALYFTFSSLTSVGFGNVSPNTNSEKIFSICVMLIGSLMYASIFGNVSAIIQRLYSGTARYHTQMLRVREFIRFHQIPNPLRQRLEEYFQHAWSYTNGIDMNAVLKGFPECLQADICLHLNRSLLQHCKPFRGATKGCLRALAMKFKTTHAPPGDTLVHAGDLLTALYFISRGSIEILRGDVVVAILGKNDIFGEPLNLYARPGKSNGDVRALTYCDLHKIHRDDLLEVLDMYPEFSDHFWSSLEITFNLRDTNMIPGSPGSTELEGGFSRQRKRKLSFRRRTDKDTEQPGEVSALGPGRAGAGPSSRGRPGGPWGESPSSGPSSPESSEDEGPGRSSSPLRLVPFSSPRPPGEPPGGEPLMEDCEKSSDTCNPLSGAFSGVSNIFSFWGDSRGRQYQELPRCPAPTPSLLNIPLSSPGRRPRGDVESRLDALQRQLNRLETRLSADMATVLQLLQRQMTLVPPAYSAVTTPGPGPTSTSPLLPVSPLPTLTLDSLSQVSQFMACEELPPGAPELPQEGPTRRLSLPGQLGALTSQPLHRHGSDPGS

SMILES | hERG current change (%, negative = inhibition) at 10uM [%]
Cc1ccc(-c2c[n+](CC(=O)OCc3ccccc3)c3n2CCC3)cc1.[Br-] | -56.3
NC1=NC(=O)/C(=C\C=C\c2ccccc2)S1 | 16.4
CC(c1ccccc1)N1CCC(CNC(=S)Nc2cccc(Cl)c2)C1 (centres unmarked) | -29.2
O=C(O)c1cc(-c2cccc(Cl)c2)nc2nc(N3CCCCC3)sc12 | 8.18
CCOC(=O)c1cnc2c(Cl)cccc2c1NCCCN1CCOCC1 | -44.7
NC(=O)C1CCN(C(=O)CSc2ccccn2)CC1 | 15.6
CS(=O)(=O)c1ccc(Cl)c(NC(=O)C2CC(=O)N(Cc3ccco3)C2)c1 (centres unmarked) | 9.79
Cn1c(SCc2cccc(Br)c2)nnc1-c1ccccn1 | -33.4
CN(C)c1cccc(C(=O)NCc2ccccc2Cl)c1 | 10
Cc1ccccc1-n1c(-c2ccc([N+](=O)[O-])cc2)nc2ccccc2c1=O | -0.532
COc1ccc(CC(=O)N2CCN(C(=O)Cc3ccc(OC)cc3)CC2)cc1 | -6.76
Cc1ccc2oc(=O)c3cnn(CC(=O)NCCC(C)C)c3c2c1 | 11
O=S(=O)(NCC1CCCN(Cc2ccccc2O)C1)c1cccc2cccnc12 (centres unmarked) | -22.8
c1ccc(CNc2nnnn2-c2ccccc2)cc1 | -12.1
O=C(CSc1nc2scc(-c3ccccc3)c2c(=O)[nH]1)NCCc1ccccc1 | -1.09
O=C(O)c1ccccc1CSc1nnc2c(n1)[nH]c1ccccc12 | 16.3
O=C(O)CCCC(=O)N1CCN(c2nc(-c3ccccc3)c3ccccc3n2)CC1 | 1.86
CCCC[n+]1ccn(C2=C([O-])c3ccccc3C(=O)/C2=N\S(=O)(=O)c2ccccc2)c1 | -14.9
Cc1cc(Cl)ccc1OCC(=O)N1CCN(C)CC1 | -12.5
CCN(CC(=O)Nc1ccc([N+](=O)[O-])cc1OC)CC(=O)NC(C)(C)C | -14.3
CN1C(=S)N(c2ccccc2)C(=O)/C1=C/c1cccs1 | -7.22
CC1=Nc2ncnn2C(c2ccccc2)/C1=N\O (centres unmarked) | -0.0382
O=C(COc1ccc(-c2nnco2)cc1)Nc1ccc(C(F)(F)F)cc1 | 5.7

SMILES | hERG current change (%, negative = inhibition) at 10uM [%]
Cc1ccccc1C(=O)NC(C(=O)Nc1nc2c(s1)CCCC2)C(C)C (centres unmarked) | -2.77
CC(C)(C)c1nc(CN2CCCCC2)cc(CN2CCCCC2)c1O | -24.2
O=C(O)C(=O)O.O=C(c1cccc(F)c1)N1CCC(N2CCCCCC2)CC1 | -15.7
COc1ccc(/C(N)=N/OC(=O)c2ccc(OC)c([N+](=O)[O-])c2)cc1OC | -65
COc1ccc(S(=O)(=O)N2CCN(C(=O)c3cc(-c4ccc(Br)cc4)n[nH]3)CC2)cc1OC | -13.5
CC(C)N1CN=C(Nc2nc3ccccc3o2)NC1 | 25.2
COc1cc(/C=N/NC(=O)Cc2c[nH]c3ccccc23)cc(OC)c1OC | 1.52
Cc1cccc(-n2cnc3cc(C(=O)N4CCc5ccccc54)ccc32)c1 | -61.5
COc1ccc(/C=C/C(=O)Nc2nc(C)cc(C)n2)cc1OC | 15.8
COC(=O)C(C(C)=O)C1=C/C(=N\S(=O)(=O)c2ccc(C)cc2)c2ccccc2C1=O (centres unmarked) | 14.3
CC(C)(C)c1ccc(OCCCC(=O)NNC(=O)c2ccccc2O)cc1 | 14
CCOC(=O)c1ccc(CNC(=O)CSc2nnnn2-c2ccc(Cl)cc2)o1 | -27.2
CCOC(=O)C1CCCN(C(=O)c2cccc([N+](=O)[O-])c2C)C1 (centres unmarked) | 0.93
CC1CN(S(=O)(=O)c2cccc(C(=O)N(CCc3ccccc3)Cc3ccccc3)c2)CC(C)O1 (centres unmarked) | -7
O=C(/C=C/c1ccc(Cl)cc1Cl)c1cccnc1 | 7.98
O=C(NCCCN1CCc2ccccc2C1)Nc1ccc(Cl)cc1 | -65.5
N#Cc1nc(-c2ccc(Cl)cc2)oc1NCc1cccc2c1OCO2 | 8.09
O=C(Nc1ccccn1)c1ccc(Cl)c(S(=O)(=O)N2CCOCC2)c1 | -5.24
COc1ccc(N(CC(=O)NC2CCCC2)C(=O)Cn2nnc(-c3ccc(F)cc3)n2)cc1OC | 8.37
N/C(COc1cc(Cl)cc(Cl)c1)=N\O | 13.9
Cl.O=C1CN2Cc3c(ccc(Cl)c3Cl)N=C2N1 | -5.07
C=C(C)CC(Nc1ccc(OC)cc1)c1ccco1 (centres unmarked) | 18.3
C=CCc1cc(OC)ccc1OCCOCCN1CCc2ccccc2C1.O=C(O)C(=O)O | -71

SMILES | hERG current change (%, negative = inhibition) at 10uM [%]
CCN(CC)CCNS(=O)(=O)c1ccc(OC)c(Br)c1 | 10.5
Cc1cccc(NC(=O)c2cc(Cl)nc3ccccc23)c1 | 9.55
CC(C(=O)O)n1c(C(F)(F)F)nc2ccccc21 (centres unmarked) | 4.94
Cc1ccc2c(C)c(C(=O)N(C)Cc3ccncn3)oc2c1C | 11.8
C=CCOC(=O)C1=C(C)NC(=S)NC1/C=C/c1ccccc1 (centres unmarked) | -4.63
CCOc1cccc(C(=O)Nc2cccc(C(=O)NC(C)(C)C)c2)c1 | -34.6
O=C(CNC(=O)C1CCCCC1)Nc1cc(Cl)ccc1Cl | -12.7
O=C(O)C[C@H]1c2cc(C(F)(F)F)ccc2S(=O)(=O)N1C1CCCC1 | 20
Cl.OC(CCCCN1CCCCC1)c1ccccc1 (centres unmarked) | -18.1
O=C(O)Cc1c(C(=O)O)nnn1-c1ccc(Cl)cc1Cl | 22.9
CCCN(CCC)C(=O)Cn1c(=O)n(CCCCCC(=O)Nc2ccccc2)c(=O)c2sccc21 | -45.3
Cc1nc(-c2ccc(Cl)cc2)sc1C1(C)CC(c2ccc(Cl)cc2)=NO1 (centres unmarked) | 26
CCOC(=O)CNC(=O)CSc1nnnn1-c1cc(C)ccc1C | 6.06
CN1c2ccc(Cl)cc2C(=O)NC1c1ccc([N+](=O)[O-])s1 (centres unmarked) | -33
O=S(CC1CC1(Cl)Cl)CC1CC1(Cl)Cl (centres unmarked) | 3.18
O=C(CNC(=O)c1nc[nH]c1C(=O)NCC(=O)OCc1ccccc1)OCc1ccccc1 | 17.9
CC(=O)c1cc2c(cc1NC(=O)CCC1CCCC1)OCO2 | -2.6
CC(=O)OC1CC(C)(C)N(OC(=O)CCCN2C(=O)c3ccccc3C2=O)C(C)(C)C1 | -12.2
CC(C)(C)OC(=O)N1CCCN(C(=O)Nc2cccc(Cl)c2)CC1 | -4.88
Cc1cc(/C=C2\SC(=S)N(Cc3ccco3)C2=O)c(C)n1-c1ccccc1 | 8.67
O=C(c1ccc(NC(=S)NCc2ccco2)cc1)N1CCOCC1 | -4.64
Cc1ccc2c(c1)N(CC(=O)N1CCCc3ccccc31)C(=O)C(C)O2 (centres unmarked) | -8.46
CC(=O)Nc1nc(-c2cccs2)cs1 | 4

SMILES | hERG current change (%, negative = inhibition) at 10uM [%]
Cn1c(=O)n(C)c2cc3[nH]cnc3cc21 | 9.54
COC(=O)CCC(=O)Nc1cccc2ccccc12 | 11.4
COc1ccc(NC(=O)CSc2nncn2C)cc1OC | 6.77
CC1(C)CC(=O)C(CCCN2C(=O)c3ccccc3C2=O)C(=O)C1 | -47.2
CCC1=Nc2cc(C(=O)N3CCCCC3)ccc2Sc2ccc(C)cc21 | -15.1
Cc1c(Cl)cccc1N(CC(=O)NC1CCCCC1)S(C)(=O)=O | 7.78
Cc1ccccc1C(=O)Nc1ccnn1C1CCN(C(=O)c2ccoc2)CC1 | 10.5
CCN(CC)CCN1C(=O)C(=O)/C(=C(/O)c2c(C)[nH]c(C(=O)OC)c2C)C1c1cccnc1 (centres unmarked) | 14.2
O=C(CCCn1c(=O)c2sccc2n(Cc2ccc(F)cc2)c1=O)NCc1ccco1 | -30.2
CC1CN(C/C(=N\O)C23CC4CC(CC(C4)C2)C3)CC(C)O1 (centres unmarked) | 9.35
C/C(=N\NC(=O)c1nnn(-c2nonc2N)c1-c1ccccc1)c1cccnc1 | 9.2
Cc1ccc(OCC(O)CNC2CCCC2)cc1C.Cl (centres unmarked) | -3.46
COc1ccc(N2C(=O)c3ccc(C(=O)Nc4cc(OC)ccc4OC)cc3C2=O)cc1 | 23.7
Cc1ccc(CN2CC(C(=O)NCCCSc3ccccc3)CC2=O)cc1 (centres unmarked) | -12.6
Cc1ccc(Cc2c(C)nc3nc(SCC(=O)NCCN4CCOCC4)nn3c2C)cc1 | -9.84
Cn1cc(SCC(=O)N2CCCc3ccccc32)c2ccccc21 | -2.42
CC1(C(=O)NCc2ccccn2)C=CCN1C(=O)c1ccccc1 (centres unmarked) | 15.3
COc1ccc(CNc2ccc(S(=O)(=O)N3CCN(C)CC3)cn2)cc1OC | 6.6
CCOC(=O)C1(CCCc2ccccc2)CCN(C(=O)Cn2nc(C)nc2C)CC1 | -24.6
CCCc1nc2ccc(NC(C)=O)cc2c(=O)n1Cc1ccccc1Cl | -15.5
